Data taken from the supplement of paper PMC3334620.
The full ranking holds about 33,000 sequences; the median of “E-score (-0.5 to 0.5)” is about -0.012, and the highest 2% start at about 0.27. Some of the results follow.

target: T1, Vhr1 (UniProt P40522); experiment: PBM E-score (8-mer binding enrichment) (E-score (-0.5 to 0.5)); higher = stronger / more preferred TF binding; most listed sequences are background and not binding sites; details: protein concentration: 200 nM; construct: GST-full length
T1 sequence: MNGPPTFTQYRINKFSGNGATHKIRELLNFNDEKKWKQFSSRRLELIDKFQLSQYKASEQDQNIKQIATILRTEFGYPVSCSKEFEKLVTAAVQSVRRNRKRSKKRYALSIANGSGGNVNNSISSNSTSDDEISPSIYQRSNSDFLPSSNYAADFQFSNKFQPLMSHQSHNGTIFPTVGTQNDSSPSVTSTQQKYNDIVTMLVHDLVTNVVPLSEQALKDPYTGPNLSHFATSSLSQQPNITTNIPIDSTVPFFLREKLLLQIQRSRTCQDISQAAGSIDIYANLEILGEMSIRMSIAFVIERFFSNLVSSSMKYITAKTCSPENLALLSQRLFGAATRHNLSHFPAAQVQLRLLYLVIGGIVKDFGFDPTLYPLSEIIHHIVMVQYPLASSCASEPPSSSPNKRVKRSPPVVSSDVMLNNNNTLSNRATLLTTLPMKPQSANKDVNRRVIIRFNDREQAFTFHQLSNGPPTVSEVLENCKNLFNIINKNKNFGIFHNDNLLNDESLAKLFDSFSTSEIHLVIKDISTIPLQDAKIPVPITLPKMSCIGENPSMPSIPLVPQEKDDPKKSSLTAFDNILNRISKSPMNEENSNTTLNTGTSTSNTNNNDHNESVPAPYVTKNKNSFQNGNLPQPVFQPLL
Protocol: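 Universal 'all 10-mer' protein binding microarrays (Agilent AMADID 015681) probed with GST-tagged S. cerevisiae TFs (full-length or DBD) made by in vitro transcription/translation (PURExpress), about 100-200 nM. Bound TF was detected with fluorescent anti-GST. Each ungapped 8-mer (which stands for itself and its reverse complement) is scored by the PBM enrichment score (E-score), a modified Wilcoxon-Mann-Whitney statistic from -0.5 to +0.5, computed with the Universal PBM Analysis Suite. Scale: above 0.35 generally sequence-specific binding.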

First: TACTAGCA
Second: AGTGTTTG
The “PBM E-score” value of the first is lower: 0.0335 for the first, 0.261 for the second.

First: TCCAGTAA
Second: CCCACGAA
The “PBM E-score” value of the first is lower: -0.197 for the first, 0.00982 for the second.

Going from CTTAGGAC to CGGTTGCA, the “PBM E-score” value rises from -0.143 to -0.102.

First: ACGAATCG
Second: CGGAGCCG
The “PBM E-score” value of the first is lower: 0.0809 for the first, 0.188 for the second.

Going from GATACAGA to AGCGAACG, the “PBM E-score” value falls from 0.129 to -0.0842.

Compared with ATTTCGCC, CGTTTCTA is lower in “PBM E-score” value: -0.0266 for the first, -0.126 for the second.

First: ATCATGAG
Second: GATACCTA
The “PBM E-score” value of the first is higher: 0.235 for the first, 0.163 for the second.

Going from AGCTACAC to CGGCTGAC, the “PBM E-score” value rises from 0.131 to 0.156.

Going from CTTCTCGC to GAGTGATC, the “PBM E-score” value rises from -0.146 to 0.142.

Compared with ATTTACGA, ATCTGACC is higher in “PBM E-score” value: -0.107 for the first, 0.00776 for the second.

Going from TAGGCAGA to GCTGGGCA, the “PBM E-score” value falls from 0.0248 to 0.00419.

Compared with AGGTCCTC, AGCGTGAA is lower in “PBM E-score” value: -0.0875 for the first, -0.267 for the second.

Going from ACCAACTA to TCCGGAGA, the “PBM E-score” value falls from 0.0969 to -0.158.

First: CATCATCG
Second: CCACCTAG
The “PBM E-score” value of the first is higher: 0.16 for the first, -0.0411 for the second.

First: AAGACCGC
Second: CTGTAGAC
The “PBM E-score” value of the first is lower: -0.213 for the first, -0.0233 for the second.

Going from ATACTCGA to CGCGCGCG, the “PBM E-score” value rises from 0.148 to 0.286.

Going from TCGCTGCA to CTGGATTA, the “PBM E-score” value rises from -0.0417 to 0.0744.

First: TTACACAA
Second: TCCGCTAA
The “PBM E-score” value of the first is higher: 0.0848 for the first, -0.189 for the second.

Compared with ACCCTTCT, CGCCGTCA is higher in “PBM E-score” value: -0.153 for the first, -0.0741 for the second.

Going from CGCTGTAC to ACATGGGC, the “PBM E-score” value rises from 0.0335 to 0.165.

Going from CACGGAAG to GAGCGCGA, the “PBM E-score” value rises from -0.026 to 0.217.

Going from AACGTAGC to ATGACTTA, the “PBM E-score” value rises from -0.149 to 0.349.

First: GCTGCTCC
Second: CGAGGTCA
The “PBM E-score” value of the first is lower: -0.159 for the first, 0.0869 for the second.

Going from GCTCCCGA to CAAAATCA, the “PBM E-score” value falls from -0.0166 to -0.0188.

Compared with TCTCAAGA, CGTATGGC is higher in “PBM E-score” value: -0.247 for the first, 0.0157 for the second.

Compared with GTCTTGGA, CCGCGCCC is higher in “PBM E-score” value: -0.0486 for the first, 0.19 for the second.

Going from AAGAGTAC to AATAGAGC, the “PBM E-score” value falls from -0.00642 to -0.0508.

Compared with GGCCCGGA, AAGCATCA is higher in “PBM E-score” value: 0.102 for the first, 0.156 for the second.

Going from ACCACTTC to AACGCAAT, the “PBM E-score” value rises from -0.0774 to -0.0275.

Compared with CGGTGTAG, ATAGTACA is higher in “PBM E-score” value: 0.145 for the first, 0.258 for the second.

Compared with AGCTGCGC, AGGGAAGG is lower in “PBM E-score” value: 0.0217 for the first, -0.227 for the second.

First: TAAATCTA
Second: CCATTCTC
The “PBM E-score” value of the first is lower: -0.202 for the first, -0.0852 for the second.

Going from ACTTGCGC to ATACGTGA, the “PBM E-score” value rises from 0.0429 to 0.0611.

Going from CCCAGCCA to ATGTCTAG, the “PBM E-score” value falls from 0.145 to 0.12.

First: CCTCGGTA
Second: ACGTCTTC
The “PBM E-score” value of the first is lower: -0.0693 for the first, -0.0534 for the second.

First: ACCTATGC
Second: CGCGTTAG
The “PBM E-score” value of the first is higher: 0.0092 for the first, -0.131 for the second.

Going from ATGAACTA to GATGGTGC, the “PBM E-score” value falls from -0.0649 to -0.392.

Going from AGGTGCTA to AGGCCGGC, the “PBM E-score” value rises from -0.262 to -0.0926.

First: CCCGTTAG
Second: ATATGAAT
The “PBM E-score” value of the first is lower: -0.144 for the first, 0.0663 for the second.

First: ACCCCAGC
Second: CCCGACAG
The “PBM E-score” value of the first is higher: 0.157 for the first, -0.00524 for the second.

First: ATTACGAA
Second: ACGCAAAC
The “PBM E-score” value of the first is lower: -0.0381 for the first, 0.129 for the second.

Compared with CGGCATAG, TATTTTAA is lower in “PBM E-score” value: 0.0147 for the first, -0.0788 for the second.

First: CCCATCAG
Second: CCAACCAC
The “PBM E-score” value of the first is lower: -0.156 for the first, 0.159 for the second.

Going from AACTCACA to TCGGGCCA, the “PBM E-score” value falls from 0.202 to 0.0209.

Compared with ACTCTTTG, ACTACCCT is higher in “PBM E-score” value: 0.0519 for the first, 0.12 for the second.

Going from ACCCTTAA to AGCTGCAC, the “PBM E-score” value rises from -0.166 to -0.0879.

First: GACTCCAC
Second: CTAAGAAA
The “PBM E-score” value of the first is higher: 0.346 for the first, -0.112 for the second.

First: GCAGGCAC
Second: ACGACCGT
The “PBM E-score” value of the first is higher: -0.0269 for the first, -0.169 for the second.

First: AGGATCGC
Second: CGAGTACA
The “PBM E-score” value of the first is lower: 0.0461 for the first, 0.0863 for the second.

Going from ACCAACAC to CCGTCCAA, the “PBM E-score” value falls from 0.0868 to -0.0876.

Going from GGGCGGGA to AGCGTTTG, the “PBM E-score” value falls from 0.199 to -0.189.

Compared with CGGAGTGC, ACAGGGGT is lower in “PBM E-score” value: 0.139 for the first, -0.139 for the second.

First: AGCAGCAA
Second: AGATAGGA
The “PBM E-score” value of the first is higher: 0.00345 for the first, -0.132 for the second.

Going from ACATCGAA to AGGAGTAG, the “PBM E-score” value falls from 0.144 to 0.0516.

First: CAACAAGA
Second: AGGACCAA
The “PBM E-score” value of the first is higher: 0.073 for the first, -0.0137 for the second.

First: AACTCCAA
Second: CATAAAAG
The “PBM E-score” value of the first is higher: 0.0433 for the first, -0.148 for the second.

Going from CCACCTAC to AGCGTGCC, the “PBM E-score” value falls from -0.017 to -0.106.

Compared with ACTGGCTA, CTCAGTAC is lower in “PBM E-score” value: 0.0572 for the first, 0.00485 for the second.

First: GAGTTCCA
Second: CGCCCCAA
The “PBM E-score” value of the first is lower: -0.0698 for the first, 0.173 for the second.

Going from GCTGTCCC to CGTTTCTC, the “PBM E-score” value rises from -0.206 to -0.0242.

Going from AAAAGGAT to GACGTCAC, the “PBM E-score” value rises from -0.123 to 0.00621.

Compared with ACCATAAC, CCTCTGTC is lower in “PBM E-score” value: 0.228 for the first, -0.184 for the second.

Compared with CACGTAAA, ACTTACAT is higher in “PBM E-score” value: -0.322 for the first, 0.0777 for the second.

Going from AGAAACAC to CCCGCTAC, the “PBM E-score” value falls from -0.0185 to -0.0733.

Going from TCGTTACA to GGTAGGGA, the “PBM E-score” value rises from 0.0717 to 0.105.

Compared with AAGGCCGG, CAAAGTTA is lower in “PBM E-score” value: 0.0229 for the first, -0.0997 for the second.

Compared with ATCTTAAT, CTGGTTAC is higher in “PBM E-score” value: -0.0959 for the first, -0.0787 for the second.

Going from CAAGCGAA to TCGGCCCA, the “PBM E-score” value rises from -0.108 to -0.0331.

First: ATTTGGGG
Second: GGCTCGGA
The “PBM E-score” value of the first is higher: 0.0857 for the first, 0.0185 for the second.

First: GAGGCGAC
Second: AGCAACTA
The “PBM E-score” value of the first is lower: -0.205 for the first, 0.0441 for the second.

Going from CCTTAGTC to AATCCATC, the “PBM E-score” value rises from 0.0771 to 0.136.

Compared with CTGTAGCA, GCTTAGAA is higher in “PBM E-score” value: -0.158 for the first, -0.117 for the second.

Compared with CGAACGCA, GCGCCTCA is lower in “PBM E-score” value: 0.25 for the first, -0.0378 for the second.

First: ATCGCGGC
Second: CCATGCAG
The “PBM E-score” value of the first is higher: 0.164 for the first, 0.097 for the second.

First: ACATTTCT
Second: AGGGCAAC
The “PBM E-score” value of the first is higher: -0.142 for the first, -0.169 for the second.

First: CACTCAAG
Second: AACCGGCA
The “PBM E-score” value of the first is higher: -0.0403 for the first, -0.129 for the second.

Compared with AAAACAAC, CAGGTTGA is higher in “PBM E-score” value: -0.175 for the first, 0.2 for the second.

Going from CCTCCATC to CACATAGG, the “PBM E-score” value rises from 0.00108 to 0.0638.

Compared with AAAATAAG, ATTGCTTC is higher in “PBM E-score” value: -0.307 for the first, -0.0471 for the second.

First: GCTTCTAA
Second: CGCAACAA
The “PBM E-score” value of the first is lower: -0.281 for the first, -0.112 for the second.

Compared with CCCTTAAA, ATTTCCAG is higher in “PBM E-score” value: -0.319 for the first, 0.0725 for the second.

Going from CCCATATC to TAGTCGGA, the “PBM E-score” value rises from 0.128 to 0.203.

Compared with CTAACTCC, TTATCGAA is higher in “PBM E-score” value: -0.103 for the first, -0.0152 for the second.

First: ATCGTAGA
Second: AACGAAAA
The “PBM E-score” value of the first is higher: -0.0399 for the first, -0.0921 for the second.

First: AACGAGAA
Second: CTTACGTA
The “PBM E-score” value of the first is higher: 0.00986 for the first, -0.262 for the second.

First: AACTTTCC
Second: TACCTACA
The “PBM E-score” value of the first is lower: -0.178 for the first, -0.0123 for the second.
